Experimental findings from the BET-seq Pho4 binding data (Le et al. 2018) are described below.

Some of the results follow. These are noisy estimates, calculated here from bound and input reads.

For this assay, the target named is T1, Pho4 (S. cerevisiae) (UniProt P07270).
T1 sequence: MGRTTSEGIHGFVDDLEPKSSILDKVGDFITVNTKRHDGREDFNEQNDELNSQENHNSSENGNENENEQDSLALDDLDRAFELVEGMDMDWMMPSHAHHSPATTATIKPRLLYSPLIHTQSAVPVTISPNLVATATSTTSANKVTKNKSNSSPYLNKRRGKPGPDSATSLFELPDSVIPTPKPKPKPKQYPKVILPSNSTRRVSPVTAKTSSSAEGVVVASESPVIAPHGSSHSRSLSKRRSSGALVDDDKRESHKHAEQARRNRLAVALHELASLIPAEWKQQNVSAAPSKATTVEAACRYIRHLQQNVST
Kind of assay: relative binding free energy (BET-seq); higher = weaker binding. To be noted: reference: library average.
Regarding GAAAGCACGTGGGGAA, the “relative binding free energy” value stood at 0.09 kcal/mol.

Consider TAACACACGTGGGTTA, for which the “relative binding free energy” value was -0.03 kcal/mol.

As to CGACGCACGTGGGGTT, the “relative binding free energy” value was -0.23 kcal/mol.

Take CGTGTCACGTGAGAGG: the “relative binding free energy” value came out at 0.38 kcal/mol.

Regarding GGGGGCACGTGCGGCC, the “relative binding free energy” value was -0.16 kcal/mol.

As to GGGCCCACGTGGTGGT, the “relative binding free energy” value was -0.2 kcal/mol.

Take AGTTTCACGTGACGGA: the “relative binding free energy” value is 0.2 kcal/mol.

For the sequence TGTGACACGTGAATGG, the “relative binding free energy” value stood at 0.12 kcal/mol.

On to TCCGGCACGTGGGAGT, for which the “relative binding free energy” value is -0.11 kcal/mol.

Regarding TGGGTCACGTGGCGTA, the “relative binding free energy” value is -0.04 kcal/mol.

With AATGGCACGTGGTACT, the “relative binding free energy” value is -0.25 kcal/mol.

For the sequence AAGGGCACGTGCGTTT, the “relative binding free energy” value is -0.22 kcal/mol.

On to AAGGACACGTGGGTGT, for which the “relative binding free energy” value was -0.11 kcal/mol.

For TTAAGCACGTGATTGG, the “relative binding free energy” value amounted to 0.03 kcal/mol.

TTACGCACGTGTTTGG: the “relative binding free energy” value was -0.09 kcal/mol.

With GTCTACACGTGTGGGG, the “relative binding free energy” value amounted to 0.1 kcal/mol.

Consider CTTGTCACGTGGCGGC, for which the “relative binding free energy” value was determined as 0.11 kcal/mol.

In the case of AGAGTCACGTGTGAGT, the “relative binding free energy” value was found to be 0.19 kcal/mol.

With AAAGTCACGTGGGATT, the “relative binding free energy” value worked out at 0.11 kcal/mol.

Consider TGGTACACGTGTGCGT, for which the “relative binding free energy” value is 0.1 kcal/mol.

Consider TGCTGCACGTGGCTTT, for which the “relative binding free energy” value was -0.12 kcal/mol.

In the case of TTTGTCACGTGCGGAA, the “relative binding free energy” value is -0.14 kcal/mol.

On to TTAAACACGTGTTGTA, for which the “relative binding free energy” value was -0.03 kcal/mol.

Regarding TTCGACACGTGTTAGT, the “relative binding free energy” value is 0.11 kcal/mol.

Regarding GATAGCACGTGGACTG, the “relative binding free energy” value turned out to be 0.16 kcal/mol.

In the case of GTCGTCACGTGAAGGT, the “relative binding free energy” value was 0.23 kcal/mol.

In the case of CGATGCACGTGGAAGG, the “relative binding free energy” value is 0.07 kcal/mol.

With GTATTCACGTGTAGGG, the “relative binding free energy” value came to 0.33 kcal/mol.

AGTCCCACGTGTGGGG: the “relative binding free energy” value is -0.06 kcal/mol.

Regarding GAGTACACGTGTGGTC, the “relative binding free energy” value was 0.21 kcal/mol.

As to TATAGCACGTGCTTGG, the “relative binding free energy” value is -0.08 kcal/mol.

Consider TTAGTCACGTGTGATG, for which the “relative binding free energy” value was 0.13 kcal/mol.

As to TGCATCACGTGGTTCG, the “relative binding free energy” value is 0.17 kcal/mol.

For the sequence GTGCGCACGTGGGGAT, the “relative binding free energy” value was -0.29 kcal/mol.

For the sequence AAGGGCACGTGTAGAT, the “relative binding free energy” value is 0.15 kcal/mol.

Take GTGGGCACGTGAGTTC: the “relative binding free energy” value turned out to be 0.11 kcal/mol.

Regarding CTGGACACGTGTATTT, the “relative binding free energy” value is 0.06 kcal/mol.

In the case of GTGGGCACGTGTTAGA, the “relative binding free energy” value is 0.1 kcal/mol.

For the sequence TTCTTCACGTGGGGTT, the “relative binding free energy” value was found to be 0.29 kcal/mol.

Turning to GATGTCACGTGTTGAA, the “relative binding free energy” value came out at 0.28 kcal/mol.

For TTTCGCACGTGAGGGC, the “relative binding free energy” value was found to be 0.17 kcal/mol.

As for TCGGGCACGTGAGTCG, the “relative binding free energy” value stood at 0.18 kcal/mol.

On to AAGGACACGTGTTTGT, for which the “relative binding free energy” value is 0.01 kcal/mol.

Regarding TTAATCACGTGTAGGT, the “relative binding free energy” value worked out at 0.09 kcal/mol.

As for CGGATCACGTGTAGTT, the “relative binding free energy” value was determined as 0.21 kcal/mol.

On to TCATGCACGTGTCGGT, for which the “relative binding free energy” value is 0.02 kcal/mol.

On to TTGTGCACGTGACGTC, for which the “relative binding free energy” value amounted to 0.24 kcal/mol.

For the sequence TGCTACACGTGAAGGT, the “relative binding free energy” value worked out at 0.34 kcal/mol.

As to TGGGTCACGTGTACGA, the “relative binding free energy” value came to 0.12 kcal/mol.

For the sequence GGATTCACGTGTATTG, the “relative binding free energy” value came out at 0.32 kcal/mol.

Turning to GAAAGCACGTGATAGG, the “relative binding free energy” value came out at 0.16 kcal/mol.

Turning to TCGTGCACGTGGGTGT, the “relative binding free energy” value is -0.18 kcal/mol.

For TTTCTCACGTGGTGCT, the “relative binding free energy” value was 0.18 kcal/mol.

In the case of TTGGACACGTGTATAA, the “relative binding free energy” value amounted to 0.07 kcal/mol.

As to TTTGCCACGTGTTATG, the “relative binding free energy” value was -0.1 kcal/mol.

Turning to TCGGTCACGTGGTGGT, the “relative binding free energy” value is 0.14 kcal/mol.

TCTGGCACGTGGGGGA: the “relative binding free energy” value was -0.21 kcal/mol.

As for TGTTGCACGTGTGAAT, the “relative binding free energy” value is 0.02 kcal/mol.

TATGACACGTGTAGGT: the “relative binding free energy” value came to 0.06 kcal/mol.

For GTTAACACGTGTAGTG, the “relative binding free energy” value was 0.03 kcal/mol.

In the case of TTGAGCACGTGAGTCA, the “relative binding free energy” value was 0.12 kcal/mol.

Take CGTACCACGTGGGGTG: the “relative binding free energy” value is -0.36 kcal/mol.

TCTGACACGTGGTGGG: the “relative binding free energy” value stood at 0.03 kcal/mol.

ATTAGCACGTGGGGGG: the “relative binding free energy” value is -0.19 kcal/mol.

On to TTCCACACGTGTTGGG, for which the “relative binding free energy” value worked out at 0.13 kcal/mol.

Regarding ATACGCACGTGTTAGT, the “relative binding free energy” value is -0.17 kcal/mol.

Turning to TACGACACGTGGGGTT, the “relative binding free energy” value is -0.07 kcal/mol.

For the sequence TGGTGCACGTGCGCGT, the “relative binding free energy” value is -0.23 kcal/mol.

With TGGTGCACGTGCATAT, the “relative binding free energy” value was -0.1 kcal/mol.

Regarding TAGTTCACGTGCGGCG, the “relative binding free energy” value was 0.26 kcal/mol.

Take ATTGTCACGTGTTGGG: the “relative binding free energy” value stood at 0.13 kcal/mol.

Consider CATTACACGTGTAGTT, for which the “relative binding free energy” value is 0.12 kcal/mol.

In the case of CTATTCACGTGGTAGT, the “relative binding free energy” value came out at 0.17 kcal/mol.

For the sequence TGAAACACGTGTGCGT, the “relative binding free energy” value worked out at 0.03 kcal/mol.

With TATGACACGTGATTAG, the “relative binding free energy” value amounted to 0 kcal/mol.

In the case of GTCATCACGTGTGGAT, the “relative binding free energy” value came to 0.17 kcal/mol.

For AGGGTCACGTGGCTTT, the “relative binding free energy” value was 0 kcal/mol.

Turning to GGGCTCACGTGGGTGC, the “relative binding free energy” value was determined as 0.08 kcal/mol.

For the sequence TGGATCACGTGACGTG, the “relative binding free energy” value was 0.37 kcal/mol.

Turning to AGTTGCACGTGGCTGT, the “relative binding free energy” value is -0.14 kcal/mol.

On to TGCATCACGTGTTTGC, for which the “relative binding free energy” value is 0.18 kcal/mol.

For the sequence AGGGTCACGTGGTCGC, the “relative binding free energy” value was -0.15 kcal/mol.

As for TCCGGCACGTGTCTGT, the “relative binding free energy” value was determined as 0.24 kcal/mol.

As for TGGGTCACGTGTCGTC, the “relative binding free energy” value is 0.16 kcal/mol.

Consider TTAAACACGTGGGGTG, for which the “relative binding free energy” value is -0.28 kcal/mol.

Regarding TTCTTCACGTGGGTTA, the “relative binding free energy” value was -0.04 kcal/mol.

As for ATGGTCACGTGTGGTA, the “relative binding free energy” value amounted to 0.19 kcal/mol.

As for TGATTCACGTGAGTCT, the “relative binding free energy” value came to 0.35 kcal/mol.

Turning to TTTGACACGTGGATGG, the “relative binding free energy” value is 0.08 kcal/mol.

As to GCTGTCACGTGGGGTC, the “relative binding free energy” value was -0.07 kcal/mol.

Take GGGGGCACGTGAGGTT: the “relative binding free energy” value was found to be 0.28 kcal/mol.

As for TAAATCACGTGTAATT, the “relative binding free energy” value was 0.2 kcal/mol.

Take TAAGGCACGTGGTGAG: the “relative binding free energy” value is -0.14 kcal/mol.

With TTGGACACGTGAAGTA, the “relative binding free energy” value came to 0.19 kcal/mol.

For TAGTTCACGTGCTTAA, the “relative binding free energy” value worked out at 0.38 kcal/mol.

Regarding GTTTACACGTGGCCTG, the “relative binding free energy” value was 0.09 kcal/mol.

With GGGTGCACGTGTTGCG, the “relative binding free energy” value is 0 kcal/mol.

On to ATATGCACGTGATTCT, for which the “relative binding free energy” value stood at 0 kcal/mol.

Regarding GAGGTCACGTGGAAAA, the “relative binding free energy” value was 0.4 kcal/mol.

On to GTAGTCACGTGACGTG, for which the “relative binding free energy” value was found to be 0.22 kcal/mol.

AAAAGCACGTGGGTTG: the “relative binding free energy” value is -0.24 kcal/mol.

Take AAAGCCACGTGGGTGG: the “relative binding free energy” value is -0.19 kcal/mol.

In the case of GAGGCCACGTGTTTTT, the “relative binding free energy” value was -0.06 kcal/mol.

Regarding TCAGTCACGTGGGTGG, the “relative binding free energy” value is -0.1 kcal/mol.

With TTGGTCACGTGATTCA, the “relative binding free energy” value was found to be 0.17 kcal/mol.

As for TGCGTCACGTGATTTT, the “relative binding free energy” value was 0.21 kcal/mol.

For the sequence TGGATCACGTGTTTGA, the “relative binding free energy” value came out at 0.1 kcal/mol.

As to GTATGCACGTGGGACT, the “relative binding free energy” value is -0.17 kcal/mol.

Regarding GAGTGCACGTGGGATT, the “relative binding free energy” value was 0.06 kcal/mol.

GTGGGCACGTGCTGGC: the “relative binding free energy” value was -0.24 kcal/mol.

GTGAACACGTGATGCG: the “relative binding free energy” value was 0.22 kcal/mol.

With TTTCTCACGTGATTAT, the “relative binding free energy” value worked out at 0.16 kcal/mol.

On to TATAGCACGTGAGTAG, for which the “relative binding free energy” value was 0.14 kcal/mol.

In the case of TTAGCCACGTGGGGGA, the “relative binding free energy” value was -0.31 kcal/mol.

Take TTTTACACGTGATTTG: the “relative binding free energy” value worked out at 0.29 kcal/mol.
